Our source for the ETS1 binding intensity values is the supplement of paper PMC10681739.

± gives the standard deviation of the averaged measurements. Whole data set: some 4,100 sequences, median “arbitrary fluorescence units” near 780, cut for the highest 2% near 22,000. Some of the results follow.

The target of this test is T1, ETS1 (UniProt P14921).
T1 sequence: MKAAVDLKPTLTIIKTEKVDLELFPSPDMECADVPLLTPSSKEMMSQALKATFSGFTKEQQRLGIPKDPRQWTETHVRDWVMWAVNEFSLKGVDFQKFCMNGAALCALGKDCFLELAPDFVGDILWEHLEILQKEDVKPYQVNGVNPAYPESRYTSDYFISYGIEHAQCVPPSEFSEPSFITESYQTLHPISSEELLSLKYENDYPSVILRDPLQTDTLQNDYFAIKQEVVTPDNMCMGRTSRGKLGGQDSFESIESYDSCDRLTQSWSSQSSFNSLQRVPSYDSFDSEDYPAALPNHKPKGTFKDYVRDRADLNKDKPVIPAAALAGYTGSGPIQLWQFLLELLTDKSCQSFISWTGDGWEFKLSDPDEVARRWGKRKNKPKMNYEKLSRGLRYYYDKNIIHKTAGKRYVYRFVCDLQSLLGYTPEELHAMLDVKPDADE
In words: ETS1 binding intensity (PBM fluorescence), ETS1 alone (arbitrary fluorescence units); higher = stronger binding. Particulars: ETS1 concentration 1 nM; RUNX1 concentration 0 nM. How it is done:
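gcPBM on 36-bp genomic-derived probes (partner site mutated) containing one ETS1 site and no RUNX1 site. Recombinant human ETS1 (1 nM) was incubated alone or with RUNX1 (25 nM) and detected by anti-ETS1 antibody fluorescence. Values are medians over 4 replicate spots (not normalised). The probes sit in constant array flanks that are not printed.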
In turn, AGCTGCAGCGGATGGCGGACGACCCCAACGCACAGT had an ETS1 binding intensity of 450.
In the case of GTGGCTTCCTGCCATTGACAATCGCGGGATGGCTTT it was 11100.
On to CGCCGGTCCCATATCCTTTCTGCGAGGTGAGCAGCA, for which the ETS1 binding intensity is 2440.
The figure for GTGGAAAGGAAATGTGTCATCTGTAGTTTGGTTTTA is 909.
The figure for GCCCACCCCCGAATTCTCGCCACTTCCTCCCCGGGA is 1400; for GCCAACTACAACATGAGGAATACATTTCCTCTTCAG it is 647.
The figure for GTTCAGCAGCTACAACAAGAGAGGATGTGTAGTGTT is 436; for GACTTTTACGGAAATAGCAGTCCAAAAGCGCGTCTA it is 1850.
As to GCACGGCGGAATTTCAAATGGGGTTTTGTAGTTTCT, the ETS1 binding intensity was 348.
The figure for CCCGGAGGACGTCCGGCCTCTGTGAGCCGCCACCTT is 4500; for CAAGAGAAAGGAAGTGGAAGCTCTTGTAGTCTGGAA it is 2190; for CCAGGATGTAGTTTGGCCACTATTGAGTGCTTTGTT it is 428.
In the case of GCAGAAACAGGAAGAGACAGGGCTGACAGCAGCAGG it was 2370.
In the case of CTCTAGAGGCTTCCTGCCCAACTACCAAGAAAAAGC it was 5010; in that of CGATGCTTCCGGCCTCCTATTGGGTGCTTTCTTGGC, 21800.
The sequence GGCGGATGGGGAGAAGAGAGTGGCTGTTGTCTCTGG came in with an ETS1 binding intensity of 461.
The figure for TGTTGCCACTGTTAGACTAGAGAGCATCCTGTTGTT is 851; for CCCCCGCCGCTGGCGCCCATCAGTGCCACTTCCGGA it is 2400; for CCCGGCGGCTACTTTCGGTCACTTTCGCCGGAACCT it is 444.
In the case of TGGGGCCTTGTTATCACAGCACTTCCTGTTTGCTTT it was 7990; in that of CTGAAACAGGAAACAGACAAAGTCACAAGGTTCGCA, 5430; in that of AACCCCAAAACGGAAACACCGGAGCCCCAAGCTGAG, 2320 ± 160.
GCCCCCAGCCCCGGAGCCTGGCTTTCTTCCTGCTCG came in with an ETS1 binding intensity of 388.
The figure for GCCTCGCGGCCTCTAGGTGCGGGCGGATAACAAAAC is 344.
The figure for ACCTGAGCAGGAAGTAGCTGAGGTCGAGGTGCAGCA is 4370; for GTGGGTTTAGGATATGGGTGTAGTTTCTAATTGTCT it is 564.
The sequence CTCCTGGGCTTGTAGTTAGAACATCCTGCAGCAAAG had an ETS1 binding intensity of 1130.
The figure for CCGCCCTTCCGGCTGGCCCCGCTCAGTCACCCTCAG is 5860; for GGTGAGCATCCGATAGCCTGGAGCAGCACCTACACC it is 841.
The figure for GCGGACTGCACTCCCGGTCTCTGCCAGGAAGAAGTA is 440.
In the case of CTAGGCCACCGGAAGTCTCCGCTCTGGATTTGCAAA it was 14300.
In turn, CAGATTCAAGGAAGTGGTGGTGCTTTGGTGTCGTTG showed an ETS1 binding intensity of 852.
CAAACATGTTGTCTCCGAGCAGGAAAATGCTAAAAT displayed an ETS1 binding intensity of 399.
Sequence GCACTGCTGGTCGGACATAGTGACGCACTTCCGCCC gave an ETS1 binding intensity of 1880.
Sequence GGGGGAGTTTTCGGAAGCGCTAACAGCGTTGGGGCC had an ETS1 binding intensity of 566.
The figure for GCCCGGCTTAGCCGCGTCGCGGAAGTCCGCTCTCTG is 397; for GACAATGTAGAGGTTGTCAGGATGTTGCTAAGTCAT it is 460.
Sequence TGTCAAAGTTTGGGGTGAGTGGCTTCCTGGAGACCC displayed an ETS1 binding intensity of 429.
The sequence GCCCCGGAAGCTCCTTAAGGAGGACCGTGTGAGTTT gave an ETS1 binding intensity of 1880.
On to GGGGGGGTGAGGTCCTGGTCGGAAGGAGGTGGAGAG, for which the ETS1 binding intensity stood at 1170.
In the case of CAGGGCCAACTCACTGCGCCAGGATGTTGTCAGGTC it was 540.
The figure for CGAACCCGGGTTCCGCCCGCGCCGTAGACGCTCCTA is 673; for TATTGTGTACTTCCCCTTCATGTTGTAGTTGGCTTT it is 1150; for ACAACTTCCTGTGGGATTTTTGGTGTCTACGGCTCA it is 37400.
In the case of TTCTGCTACATCCTGCCCACTCCCTGTGACTTCCAC, the ETS1 binding intensity worked out at 9350.
In the case of AGGCGCGATATTAGGCGGACGAGCGGAAGTGGCTGG it was 1840; in that of GGCGGTGACCGGAAGAGCTGAGTCACCGAAGGCGAC, 7610; in that of GGTTCGCGGCTTCCGGGACATTTGTACCCCAGGGGG, 5500.
Turning to ACTGAGGGCGTTGCTAGCATGAAGGCGGAAGCGCGC, the ETS1 binding intensity was found to be 438.
In the case of GCTTTTCCGCTCCCAGAGTGCCCCGCTCACAGTTCA it was 8800.
In the case of ATCCCACTATAGGAAGCTTCTCTGTGATTTTGAGCC it was 439.
GGGGCAGTGCTCACAGGAGGATCTTCCTGGAGTCAT registered an ETS1 binding intensity of 352.
In the case of CCGTACTTCCGCTTTACTCAGATTTTGGACCTCGGG it was 30200; in that of CGGCCTCGCGGCATGGGCAGTATCCGCCGCCATCCA, 464; in that of CCCCCGGACGGTTACAGAGGACACTTAAGTGGCTTG, 386.
In the case of GTTTAACAGGAAACCCTGCAGAGCACAGGTTCTGTC it was 2350; in that of TTCCGGCTGGTCCGTGGGGTTTCGGGTTGTCTTGAT, 385; in that of GTGGCCACTTGAACTGCAGATGCTTCCTGGGCTGGT, 446.
Sequence CAACCTGCTATAAGGAAGTTAAACCCCAGCTCACCG showed an ETS1 binding intensity of 609.
Regarding GTCCCCTCGGTGTCACAGCAATATCCGTTCTTTGAT, the ETS1 binding intensity was 1190.
Consider GGACAAGGGCCTGCAGCACAGGAAAAGATTTACCAA, for which the ETS1 binding intensity turned out to be 386.
GGGCCCACATCCGGCGCGCGCAACAGCAGCCTACTG gave an ETS1 binding intensity of 25800.
